Measured values reported in PubChem BioAssay AID686978 (National Center for Advancing Translational Sciences (NCATS), 2013).
Out of some 420,000 compounds screened, about 64,000 (15%) were called active. Inconclusive results, whose numbers are uncertain, are shown with a selection of clear calls. Calls come from the whole dose curve; as a rule, active = well fitted inhibition curve with a large enough effect; inconclusive = small, poorly fitted or top-dose-only effect; inactive = flat fitted curve, though single readings scatter. Potencies of inconclusive entries are left out as doubtful fits.

Experiment: qHTS for Inhibitors of human tyrosyl-DNA phosphodiesterase 1 (TDP1): qHTS in cells in absence of CPT; note: nearly all actives have a fitted effect of over 55% in size
Conditions: DT40 Tdp1-/- hTDP1 cells, no CPT, ATP luminescence, 48 h; activity change, negative = growth inhibition: at 46.2 µM (top of the series) unless noted
How it was run: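 Cells were dispensed at 400 per well, compounds added by pin tool, plates incubated ≥48 hr at 37 °C, then CellTiter-Glo added for 30 min at room temperature before luminescence reading. Line: DT40 Tdp1-/- complemented with hTDP1; camptothecin omitted.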
% is set by controls: 0 for no effect and ±100 for the full control effect; potency is the fitted concentration of half-maximal effect; tags give direction and shape of the fitted curve.

Structure (SMILES) | Potency | activity change, negative = growth inhibition
CCCn1c(SCc2ccccc2)nc2c1c(=O)[nH]c(=O)n2C | inconclusive [inhibitor, single point] | –
CN(CC(=O)Nc1ccccc1Br)C(=O)c1ccc(COc2ccccc2)cc1 | inconclusive [inhibitor, single point] | –
Cc1[nH]n(-c2ccccc2)c(=O)c1N=O | inconclusive [inhibitor, single point] | –
CC(C)NC(=O)C1CCC(Cn2c(=O)c3sccc3n(CC(=O)NCc3ccccc3)c2=O)CC1 (centres undefined) | – | inactive: 9.98%
COc1ccc(NC(=O)Cn2cnc3c(oc4ccccc43)c2=O)cc1OC | – | inactive: -12.3%
CCCOc1c(Cl)cc(C(=O)N(Cc2cccc(OC)c2)C2CCS(=O)(=O)C2)cc1Cl (centres undefined) | inconclusive [inhibitor, single point] | –
O=c1ccc(-c2ccc(S(=O)(=O)Nc3cccc([N+](=O)[O-])c3)s2)n[nH]1 | – | inactive: 17.7%
CCCCN(C(=O)c1cc(S(=O)(=O)N2CCCCC2)ccc1Cl)c1c(N)n(CC(C)C)c(=O)[nH]c1=O | – | inactive: -14.7%
CN(C)S(=O)(=O)c1ccc(C(=O)Nc2nc(-c3cccs3)cs2)cc1 | inconclusive [inhibitor, single point] | –
O=C(/C=C/c1ccc(F)cc1)Nc1cccc(S(=O)(=O)N2CCOCC2)c1 | inconclusive [inhibitor, single point] | –
CCOC(=O)C1=C[C@@H](C(C)(C)C)N(S(=O)(=O)c2ccc(C)cc2)[C@H]1c1ccc(Cl)c(Cl)c1 | active: 23.1 µM | –
COc1ccccc1[C@H]1C(c2ccc(F)cc2)=NN(c2ccccc2)[C@@H]1CO | inconclusive [inhibitor, single point] | –
O=C(NCc1ccc2c(c1)OCO2)c1ccc2c(c1)N(Cc1ccccc1)C(=O)c1ccccc1S2=O (centres undefined) | inconclusive [inhibitor, full curve, poor fit] | –
CCc1ccc(Nc2nnc(SC(C)C(=O)NC3CC3)s2)cc1 (centres undefined) | inconclusive [inhibitor, single point] | –
COC(=O)c1nn(-c2ccccc2)c(Sc2ccc(C)cc2)c1/C=N/O | inconclusive [inhibitor, single point] | –
CCOC(=O)C/C(N)=N/NC(=O)c1ccc(Cl)cc1Cl | – | inactive: -16.3%
O=C(COC(=O)c1ccccn1)Nc1nc(-c2cccc([N+](=O)[O-])c2)cs1 | active: 18.4 µM | –
OC(c1ccc(Cl)c(Cl)c1)c1ncc(-c2ccc(Cl)cc2)[nH]1 (centres undefined) | inconclusive [inhibitor, single point] | –
Cc1ccc(/C=N/NC(=O)Cn2cnc3ccccc32)cc1 | inconclusive [inhibitor, partial curve] | –
Cc1nn(C(C)C(=O)Nc2sc3c(c2C#N)CCCC3)c(C)c1[N+](=O)[O-] (centres undefined) | inconclusive [inhibitor, single point] | –
COc1ccc(NC(=O)C2CCCCN2CC(=O)OCc2ccccc2)cc1OC (centres undefined) | – | inactive: 2.13%
CC(C)n1cnc(S(=O)(=O)N2CCCC(C(=O)NCc3ccccc3Cl)C2)c1 (centres undefined) | – | inactive: -21%
Cc1cccc(NC(=O)C(=O)NCC2CCCN2S(=O)(=O)c2ccccc2)c1 (centres undefined) | active: 10.3 µM | –

Structure (SMILES) | Potency | activity change, negative = growth inhibition
NNC(=O)c1cc2cc(OC(F)(F)F)ccc2[nH]1 | – | inactive: -25.6%
CC(C)(C)c1ccccc1NC(=S)NC1CCCC1 | inconclusive [inhibitor, single point] | –
Cc1cc(C)nc(NN2C(=O)/C(=C/c3ccccc3)SC2=S)n1 | inconclusive [inhibitor, partial curve] | –
CN(c1ccccc1)S(=O)(=O)c1nnc(NC(=O)c2ccccc2)s1 | inconclusive [inhibitor, single point] | –
Cc1ccc(N2C(=O)CN(Cc3sccc3C)C2=S)cc1C | inconclusive [inhibitor, partial curve, poor fit] | –
CCN1C(=O)[C@H]2[C@@H](c3ccc(-c4ccc(C(C)=O)cc4)c(OC)c3)N3CCCC[C@@]3(C(=O)OC)[C@H]2C1=O | active: 16.4 µM | –
Cc1cc(C)c(S(=O)(=O)c2ccc(Cl)cc2)c(Cl)n1 | – | inactive: -3.85%
COc1ccccc1NS(=O)(=O)c1cc(NC(=O)COc2ccccc2F)ccc1N1CCOCC1 | inconclusive [inhibitor, single point] | –
COc1cccc(CC2(CO)CCCN(Cc3cc(F)ccc3-n3cccn3)C2)c1 (centres undefined) | inconclusive [inhibitor, partial curve, poor fit] | –
CC(C)(C)c1ccc(C(=O)c2c[nH]c(C(=O)NCc3cccnc3)c2)cc1 | active: 16.4 µM | –
O=C(CSc1ccc(Br)cc1)N1CCN(S(=O)(=O)c2ccccc2)CC1 | – | inactive: -27.4%
Cc1cccc(CN(C)C)c1CC(O)(c1ccccc1)c1ccccc1 | inconclusive [inhibitor, single point] | –
COC(=O)Cn1c(=O)c2cccn2c2cccnc21 | – | inactive: -16.7%
Cc1ccccc1-n1c(C)nc2ccccc21 | inconclusive [inhibitor, single point] | –
NC(Cc1ccc(F)cc1)c1csc(Nc2ccc(S(N)(=O)=O)cc2)n1 (centres undefined) | inconclusive [inhibitor, single point] | –
CCCCNC(=O)C1C(c2ccc(OC)cc2)=Nc2ccccc2N1C(=O)c1ccncc1 (centres undefined) | active: 20.6 µM | –
COc1nc(Cl)cn(-c2ccc(C)cc2)c1=O | – | inactive: 6.76%
Cc1c(NC(=S)NC(=O)c2ccc(Br)o2)c(=O)n(-c2ccccc2)n1C | – | inactive: 2.47%
Cc1cc(/C=N/NC(=O)c2ccncc2)c(C)n1-c1cccc(C(F)(F)F)c1 | inconclusive [inhibitor, single point] | –
COc1cccc(-c2cc(C(F)(F)F)nc(N3CCN(c4ccccc4)CC3)n2)c1 | – | inconclusive: -31.6% [inhibitor]
COc1ccc(C)cc1N(C(=O)c1snc(C(N)=O)c1N)C(C(=O)NC1CCCCC1)c1ccc(C)o1 (centres undefined) | active: 18.4 µM | –
COc1cccc(NC(=O)N2CCC(NC(=O)C(Cc3ccccc3F)NC(C)=O)CC2)c1 (centres undefined) | – | inactive: 29.4%
CSc1ccc(Cn2c(C)c(C(=O)NCc3cccc(Cl)c3)sc2=O)cc1 | inconclusive [inhibitor, single point] | –

Structure (SMILES) | Potency | activity change, negative = growth inhibition
O=C(Nc1nc2c(s1)CN(Cc1ccccc1)CC2)C1CCC1 | inconclusive [inhibitor, single point] | –
O=C(Nc1cc(=O)c2ccccc2o1)N1CCOCC1 | – | inactive: -16.6%
N#Cc1c(Sc2ncc(C(F)(F)F)cc2Cl)nsc1C/C=N\OCc1ccccc1Br | inconclusive [inhibitor, single point] | –
CC1CN(C(=O)CCC(=O)NCCCc2ccccc2)c2ccccc2O1 (centres undefined) | – | inactive: -28.8%
CN(C)CCCN(C(=O)c1ccc2c(c1)OCCO2)c1nc2ccccc2s1 | active: 16.4 µM | –
CCc1cccc(CC)c1NC(=S)N1CCn2cccc2C1c1cccnc1 (centres undefined) | inconclusive [inhibitor, partial curve, poor fit] | –
COc1cccc(CNC(=O)CSc2c3c(nc4cc(Cl)ccc24)CCCC3)c1 | active: 14.6 µM | –
NC(=O)c1ccsc1NC(=O)CN1CCN(S(=O)(=O)c2ccccc2C(F)(F)F)CC1 | inconclusive [inhibitor, single point] | –
N/C(=N\OC(=O)CC1CCCCC1)c1ccc([N+](=O)[O-])cc1 | – | inactive: -7.33%
C=CC1=C(C)/C(=C/c2[nH]c(Cc3[nH]c(/C=C4\NC(=O)C(C)=C4C=C)c(C)c3CCC(=O)O)c(CCC(=O)O)c2C)NC1=O | – | inactive: -13.6%
CCOc1ccc(CCNC(=O)c2ccc3c(=O)n4c(nc3c2)CCCCC4)cc1 | inconclusive [inhibitor, single point] | –
Cc1ccc(-n2c(N)c(C(=O)Nc3c(C)n(C)n(-c4ccccc4)c3=O)c3nc4ccccc4nc32)cc1 | inconclusive [inhibitor, single point] | –
COc1ccccc1CNc1ccc(-c2nc(-c3ccco3)no2)cc1[N+](=O)[O-] | inconclusive [inhibitor, full curve] | –
Cc1cccc2c(=O)cc(CSc3ccccc3NC(=O)c3cccc(F)c3)[nH]c12 | inconclusive [inhibitor, single point] | –
C[C@@H]1CC=C[C@H]2[C@H]1C(=O)N(Cc1ccccc1)[C@H]2c1ccc(Br)cc1F | inconclusive [inhibitor, partial curve] | –
Cc1ccc(-n2c(C)cc(/C=N/NC(N)=S)c2C)cc1 | active: 3.66 µM | –
C#CCCc1ccccc1/C=[N+](/C)[O-] | inconclusive [inhibitor, single point] | –
COc1ccc(C(CNC(=O)/C=C/c2c(Cl)nc3ccccn23)N(C)C)cc1 (centres undefined) | inconclusive [inhibitor, single point] | –
CC1CCCCC1NC(=O)CN1CCC(NC(=O)c2ccc([N+](=O)[O-])cc2)CC1 (centres undefined) | inconclusive [inhibitor, single point] | –
CN(C)C(CNC(=O)c1cccc(S(=O)(=O)N2CCN(c3ccc(F)cc3)CC2)c1)c1ccccc1 (centres undefined) | active: 9.2 µM | –
C=CCN1C(=O)/C(=C/c2ccc(O)c(OC)c2)S/C1=N/c1nccs1 | inconclusive [inhibitor, partial curve, poor fit] | –
CCOc1ccccc1NC(=O)Cn1cc(C(=O)c2ccc(Cl)cc2)c(=O)c2ccc(C)nc21 | active: 14.6 µM | –
CN(CC(=O)Nc1ccccc1Br)C(=O)CCc1nc2ccccc2c(=O)[nH]1 | – | inconclusive: -31.4% [inhibitor]
